In all, about 360,000 compounds went through this assay and about 16,000 (4.4%) were called active. The inconclusive results got no clear call from the source; some entries with a clear call stand among them for comparison. Calls follow the shape of the dose curve; as a rule, active = well fitted inhibition curve with a large enough effect; inconclusive = small, poorly fitted or top-dose-only effect; inactive = no such curve, though single readings can be large or run the other way. A potency beside an inconclusive call is a rough fit, not a confirmed value.
Target: Bromodomain adjacent to zinc finger domain protein 2B (Homo sapiens) (UniProt Q9UIF8)
Assay: qHTS Assay for Inhibitors of BAZ2B; also: nearly all actives have a fitted effect of over 60% in size
Conditions: AlphaScreen BAZ2B-H3K14Ac peptide displacement; activity change, negative = inhibition: at 114 µM (top of the series)
Procedure, shortened: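 AlphaScreen displacement: compounds (up to 110uM) incubated 30 min at room temperature with a preformed 50 nM BAZ2B/50 nM biotinylated H3K14Ac peptide complex in PBS pH 7.4 with Tween-20. Donor and acceptor beads at 10 ug/mL final added, 20 min light-protected before reading.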
% is scaled to controls: 0 for no effect and ±100 for the full control effect; potency is read from the fitted curve at half-maximal effect; tags tell the direction and shape of the fitted curve.

UniProt Q9UIF8, sequence (Q9UIF8 whole entry, looked up, the tested form may be a part): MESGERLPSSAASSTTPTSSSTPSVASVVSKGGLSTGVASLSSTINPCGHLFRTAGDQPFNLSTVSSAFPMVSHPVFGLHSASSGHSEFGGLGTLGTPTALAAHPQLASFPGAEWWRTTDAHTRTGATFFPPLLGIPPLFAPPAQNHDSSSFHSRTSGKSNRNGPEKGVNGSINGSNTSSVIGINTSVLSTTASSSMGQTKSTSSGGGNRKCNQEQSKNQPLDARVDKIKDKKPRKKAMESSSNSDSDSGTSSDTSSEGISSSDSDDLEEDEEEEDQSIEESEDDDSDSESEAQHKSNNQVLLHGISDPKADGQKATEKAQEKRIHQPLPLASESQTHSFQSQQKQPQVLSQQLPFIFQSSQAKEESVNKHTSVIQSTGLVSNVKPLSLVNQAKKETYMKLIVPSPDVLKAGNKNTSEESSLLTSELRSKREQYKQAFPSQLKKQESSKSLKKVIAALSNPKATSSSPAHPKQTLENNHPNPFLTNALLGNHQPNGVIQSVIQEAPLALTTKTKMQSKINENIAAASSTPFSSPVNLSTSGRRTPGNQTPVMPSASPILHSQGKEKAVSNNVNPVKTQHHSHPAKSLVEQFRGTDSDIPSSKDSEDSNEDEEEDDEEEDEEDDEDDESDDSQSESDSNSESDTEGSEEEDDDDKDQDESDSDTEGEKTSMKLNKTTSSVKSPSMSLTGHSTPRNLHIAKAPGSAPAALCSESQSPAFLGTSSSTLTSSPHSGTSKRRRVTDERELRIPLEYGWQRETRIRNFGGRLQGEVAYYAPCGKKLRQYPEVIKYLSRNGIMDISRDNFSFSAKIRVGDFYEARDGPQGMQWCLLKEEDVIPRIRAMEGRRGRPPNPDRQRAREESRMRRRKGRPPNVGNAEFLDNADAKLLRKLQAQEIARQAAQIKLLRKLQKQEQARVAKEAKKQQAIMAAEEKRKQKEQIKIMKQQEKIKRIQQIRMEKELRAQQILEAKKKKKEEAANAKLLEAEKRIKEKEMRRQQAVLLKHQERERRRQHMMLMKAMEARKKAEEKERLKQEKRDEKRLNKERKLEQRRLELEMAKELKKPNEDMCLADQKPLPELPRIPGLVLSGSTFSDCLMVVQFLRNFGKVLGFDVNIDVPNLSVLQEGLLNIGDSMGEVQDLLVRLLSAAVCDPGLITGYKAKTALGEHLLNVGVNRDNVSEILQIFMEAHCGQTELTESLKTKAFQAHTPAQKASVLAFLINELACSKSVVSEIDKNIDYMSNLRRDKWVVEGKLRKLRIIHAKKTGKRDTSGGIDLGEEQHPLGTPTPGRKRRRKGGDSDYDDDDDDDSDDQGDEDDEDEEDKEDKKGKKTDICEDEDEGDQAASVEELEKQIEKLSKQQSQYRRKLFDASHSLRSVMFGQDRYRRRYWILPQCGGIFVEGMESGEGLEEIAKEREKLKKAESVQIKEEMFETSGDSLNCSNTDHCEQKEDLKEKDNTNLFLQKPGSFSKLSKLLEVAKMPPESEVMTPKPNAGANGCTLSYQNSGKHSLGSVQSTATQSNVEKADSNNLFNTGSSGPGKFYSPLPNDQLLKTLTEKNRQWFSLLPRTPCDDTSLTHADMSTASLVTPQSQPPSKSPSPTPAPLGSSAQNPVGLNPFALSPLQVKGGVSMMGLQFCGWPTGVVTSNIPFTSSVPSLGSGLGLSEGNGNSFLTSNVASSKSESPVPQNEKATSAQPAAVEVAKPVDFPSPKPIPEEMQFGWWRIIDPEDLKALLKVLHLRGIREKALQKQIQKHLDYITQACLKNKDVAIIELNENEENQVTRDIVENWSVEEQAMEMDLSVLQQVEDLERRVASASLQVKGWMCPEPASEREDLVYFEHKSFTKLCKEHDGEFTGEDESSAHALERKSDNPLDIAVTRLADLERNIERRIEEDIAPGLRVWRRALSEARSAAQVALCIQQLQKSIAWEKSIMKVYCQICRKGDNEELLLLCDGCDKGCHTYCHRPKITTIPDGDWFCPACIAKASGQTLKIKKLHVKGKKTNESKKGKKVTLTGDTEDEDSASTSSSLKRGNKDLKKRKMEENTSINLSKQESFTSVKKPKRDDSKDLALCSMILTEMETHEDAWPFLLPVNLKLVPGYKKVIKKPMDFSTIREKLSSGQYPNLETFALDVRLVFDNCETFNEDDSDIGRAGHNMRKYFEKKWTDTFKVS

Compound | Potency | activity change, negative = inhibition
CC1CCN(S(=O)(=O)c2nnc(NC(=O)c3cccc(Cl)c3)s2)CC1 | inconclusive: 89.1 µM [inhibitor, single point] | 
CCOc1ccc(-c2nnc3ccc(SCc4ccc(C(=O)OC)o4)nn23)cc1 |  | inactive: 3.1%
CN1CCN(C(=S)NC(=O)c2ccco2)CC1 | inconclusive: 89.1 µM [inhibitor, single point] | 
CC12CCC(C(=O)NCc3cccnc3)(OC1=O)C2(C)C (centres undefined) |  | inactive: 0.399%
CCN(C(=O)COC(=O)c1ccc(C=O)cc1)c1c(N)n(Cc2ccccc2)c(=O)[nH]c1=O |  | inactive: -3.65%
COc1cc(-c2nc(Cc3c(F)cccc3Cl)no2)cc(OC)c1OC | active: 50.1 µM | 
Cc1nc(CC(=O)c2ccc(O)cc2O)cs1 |  | inactive: -2.09%
O=C(NCCN1CCCC1)C1CCN(S(=O)(=O)N2CCC3(CC2)OCCO3)CC1 |  | inactive: -4.51%
Cn1c(-c2ccccc2)cnc1SCC(=O)NCc1ccco1 | inconclusive: 79.4 µM [inhibitor, single point] | 
Cc1onc(C(=O)NN)c1-c1csc(COc2ccc(Cl)cc2)n1 |  | inactive: -0.102%
COc1cccc(OCCOc2ccc(/C=C3/SC(=S)NC3=O)cc2)c1 | active: 44.7 µM | 
CC1CCN(CC2CCN(C(=O)Nc3ccc(Br)cc3F)CC2)CC1 |  | inactive: 3.78%
CC1(c2ccc3c(c2)OCCO3)NC(=O)N(CC(=O)c2ccc[nH]2)C1=O (centres undefined) | inconclusive: 89.1 µM [inhibitor, single point] | 
CCCCc1cc(=O)oc2cc(OCc3nn[nH]n3)ccc12 |  | inactive: -0.871%
COc1ccc(NC(=O)C2=C(C)Nc3ncnn3C2c2cccn2C)cc1 (centres undefined) |  | inactive: -4.08%
CN(CC(=O)Nc1ccccc1Cl)C(=O)Cn1cc(C(F)(F)F)cc(Cl)c1=O |  | inactive: -2.34%
O=C(NCCO)c1cc2cc(Cl)cc(Cl)c2oc1=O |  | inactive: -24.9%
NS(=O)(=O)c1ccc2nc(NC(=O)c3ccc(Br)o3)sc2c1 | inconclusive: 79.4 µM [inhibitor, single point] | 
On1c2c(c3c4nonc4ccc31)CCCC2 | inconclusive: 89.1 µM [inhibitor, single point] | 
Cc1ccc(NC(=O)C2OCCc3ccccc32)cc1Cl (centres undefined) |  | inactive: 25.2%
N#Cc1cc(-c2ccccc2)cnc1Cl |  | inactive: 49.9%
CCc1cccc(-n2c(=O)c3cccnc3n2CC(=O)Nc2c(C)cc(C)cc2C)c1 |  | inactive: -2.11%
O=C(N/N=C/c1cccc([N+](=O)[O-])c1)c1cc2ccccc2o1 | inconclusive: 89.1 µM [inhibitor, single point] | 
O=C(NNC(=O)c1sccc1-n1cccc1)c1ccc(F)cc1 | inconclusive: 79.4 µM [inhibitor, single point] | 
C/C(=N\NC(=S)Nc1ccccc1)C1Cc2ccccc2C(=O)O1 (centres undefined) | inconclusive: 79.4 µM [inhibitor, single point] | 

Compound | Potency | activity change, negative = inhibition
COc1ccc(N(Cc2cc3cccc(C)c3[nH]c2=O)C(=O)c2cccc(Cl)c2)cc1 | inconclusive: 25.1 µM [inhibitor, full curve] | 
CC(=O)c1cccc(NC(=O)C2CCN(S(=O)(=O)c3cccs3)CC2)c1 | inconclusive: 89.1 µM [inhibitor, single point] | 
CCOC(=O)c1nnn(-c2nonc2-n2cccc2)c1-c1cccc([N+](=O)[O-])c1 | inconclusive: 39.8 µM [inhibitor, full curve, poor fit] | 
CCCCNC(=S)Nc1ccccc1Cc1ccccc1 | active: 50.1 µM | 
CC1=C(C(=O)N2CCN(c3cccc(Cl)c3)CC2)C2(CCCCC2)OC1=O |  | inactive: -14.8%
COc1ccccc1OCC(=O)NNc1c2ccccc2nc2ccccc12 | inconclusive: 44.7 µM [inhibitor, partial curve] | 
CSc1ncc(C(=O)Nc2ccc(C(C)=O)cc2)c(C)n1 | inconclusive: 50.1 µM [inhibitor, partial curve] | 
CC(C)(C)CNc1cc(N2CCOCC2)ccc1[N+](=O)[O-] | inconclusive: 39.8 µM [inhibitor, partial curve] | 
O=[N+]([O-])c1ccc(Nc2ccc(N3CCOCC3)cc2)c([N+](=O)[O-])c1 | active: 11.2 µM | 
O=C(Nc1nc2c(F)cc(F)cc2s1)C1CC(=O)N(Cc2ccco2)C1 (centres undefined) | inconclusive: 50.1 µM [inhibitor, partial curve] | 
Cc1ccc(OCC(=O)NCCCNC(=O)c2ccccn2)cc1 | inconclusive: 89.1 µM [inhibitor, single point] | 
COc1ccc(CCNc2ncnc3c2cnn3-c2cc(Cl)ccc2C)cc1 |  | inactive: 1.44%
Cc1ccc(NC(=O)Cn2c(=O)nc(-c3ccccc3)c3ccccc32)cc1F | inconclusive: 39.8 µM [inhibitor, single point] | 
COc1ccc(NC(=O)CCC(=O)c2cc(C)sc2C)cc1 |  | inactive: -7.8%
Cc1cc(C)n(/N=C/c2ccc(O)cc2)c(=O)c1C#N |  | inactive: -9.13%
Cc1ccc2nc(COc3ccccc3NC(=O)c3ccc(F)cc3)cc(=O)n2c1 |  | inactive: 2.67%
CNC(=S)N/N=C/c1ccc(-c2cccc(C(=O)O)c2)o1 |  | inactive: -17.1%
CCOc1ccc(NC(=O)c2c(NC(=O)Cc3ccccc3)sc3c2CCCCC3)cc1 | inconclusive: 70.8 µM [inhibitor, single point] | 
Cc1[nH]n(-c2cccc([N+](=O)[O-])c2)c(=O)c1-c1ccccc1 | inconclusive: 70.8 µM [inhibitor, partial curve] | 
Cc1ccc(CN2CCN(/N=C/c3sccc3C)CC2)c(C)c1 | active: 28.2 µM | 
C#CCOCCOCCOCCNc1nc(N2CCN(C(=O)CCCCCCCCCCNC(=O)[C@@H](CCC(=O)O)n3cc(CCCCCN)nn3)CC2)nc(N2CCN(C(=O)CCCCCCCCCCNC(=O)[C@H](CCCCN)n3cc(C[C@@H](C)CC)nn3)CC2)n1 | inconclusive: 89.1 µM [inhibitor, single point] | 
C#CCOCCOCCOCCNc1nc(N2CCN(C(=O)CCCCCCCCCCNC(=O)[C@@H](CCSC)n3cc(CCO)nn3)CC2)nc(N2CCN(C(=O)CCCCCCCCCCNC(=O)[C@H](CO)n3cc(CCCCCN)nn3)CC2)n1 | inconclusive: 79.4 µM [inhibitor, single point] | 
O=C(Nc1ccc(Br)cc1)C1CCCN1S(=O)(=O)c1ccc(F)cc1 (centres undefined) |  | inactive: 9.88%
Cc1ccc(NC(=O)c2ccccn2)cc1S(=O)(=O)N1CCOCC1 | inconclusive: 89.1 µM [inhibitor, single point] | 
CCC1OC(c2ccc([N+](=O)[O-])cc2)=Nc2ccccc21 (centres undefined) | inconclusive: 56.2 µM [inhibitor, partial curve] | 

Compound | Potency | activity change, negative = inhibition
CCOC(=O)/C(C#N)=C/c1cc2ccccc2nc1Cl | inconclusive: 79.4 µM [inhibitor, single point] | 
CCOC(=O)C1=C(C)NC(=O)NC1c1ccsc1 (centres undefined) | inconclusive: 100 µM [inhibitor, single point] | 
Cc1cc(C)cc(-n2c(C)cc(/C=N\NC(=O)COc3cccc4cccnc34)c2C)c1 | inconclusive: 79.4 µM [inhibitor, single point] | 
COc1ccc(OC)c2sc(N(Cc3cccnc3)C(=O)c3ccco3)nc12 | inconclusive: 79.4 µM [inhibitor, single point] | 
COc1cc(OC)c(C(=O)/C=C/c2ccccc2)c(O)c1O | inconclusive: 44.7 µM [inhibitor, partial curve] | 
O=[N+]([O-])c1ccc(N2CCN(Cc3ccc([N+](=O)[O-])o3)CC2)cc1 | active: 31.6 µM | 
CCN(CC)S(=O)(=O)c1ccc(NC(=O)c2ccc(Sc3nncn3C)c([N+](=O)[O-])c2)cc1 |  | inactive: -32.3%
Cc1ccc(C)c(N(CC(=O)NC2CCCC2)C(=O)CCC(=O)Nc2nccs2)c1 | inconclusive: 89.1 µM [inhibitor, single point] | 
COc1cc(-c2nnc(SCc3cc(=O)oc4cc(O)c(O)cc34)o2)cc(OC)c1OC | active: 7.94 µM | 
COc1ccc(Nc2oc(-c3ccc(COc4ccccc4C)o3)nc2C#N)cc1 | inconclusive: 14.1 µM [inhibitor, full curve] | 
COc1ccc(CCNC(=S)NC(=O)c2cccc(Cl)c2)cc1OC | inconclusive: 50.1 µM [inhibitor, partial curve] | 
CC1CN(CCCCOc2ccc(Cl)c3ccccc23)CC(C)O1 (centres undefined) | inconclusive: 79.4 µM [inhibitor, single point] | 
Cc1noc(/C=C/c2ccco2)c1S(=O)(=O)N1CCC(C(=O)NC(C)c2ccccc2)CC1 (centres undefined) |  | inactive: -2.75%
Cc1nc2scc(C)n2c(=O)c1S(=O)(=O)NCCc1ccccc1 | inactive | 
CCOc1ccc2nc(CN3CCN(Cc4ccsc4)C(CCO)C3)ccc2c1 (centres undefined) | inconclusive: 89.1 µM [inhibitor, single point] | 
CC(C)CNC(=O)c1ccccc1NC(=O)c1ccccc1N(C)S(=O)(=O)c1ccccc1 |  | inactive: 3.48%
COc1ccc(C(CNC(=O)c2cc3c(s2)CCC(C)C3)N2CCOCC2)cc1 (centres undefined) |  | inactive: -6.46%
CC1CCCC(N2CCN(C(=O)c3cccc(F)c3)CC2)C1 (centres undefined) | active: 50.1 µM | 
C=CCc1cc(Cl)ccc1OCCOCCNCCOC | active: 70.8 µM | 
COc1ccc(C(=O)/C=C/c2ccc(OC)cc2OC)c(O)c1 | inconclusive: 17.8 µM [inhibitor, full curve] | 
COc1ccccc1OCc1nc(C#N)c(NCCCn2ccnc2)o1 | inconclusive: 89.1 µM [inhibitor, single point] | 
O=[N+]([O-])c1cccc(C=Nc2cc3c(cc2Br)OCCO3)c1 | inconclusive: 89.1 µM [inhibitor, single point] | 
CC(=O)c1cc2c(cc1NC(=O)Cc1ccsc1)OCO2 |  | inactive: 8.2%
COc1ccc(C2NC(=O)C(=O)/C2=C(\O)c2ccc(Cl)cc2)cc1OC (centres undefined) | inconclusive: 70.8 µM [inhibitor, partial curve] | 
